Test results from PubChem BioAssay AID1347073 (National Center for Advancing Translational Sciences (NCATS), 2019).
Hit rate of the full screen: of about 45,000 compounds, about 200 (0.44%) were called active. Roughly 7% stayed inconclusive and do not appear here. Calls follow the shape of the dose curve; as a rule, active = well fitted activation curve with a large enough effect; inconclusive = small, poorly fitted or top-dose-only effect; inactive = no such curve, though single readings can be large or run the other way. The list shows a part of the results.

Experiment: qHTS of TDP-43 Inhibitors: NCGC Sytravon Library Screen; also: nearly all actives have a fitted effect of over 55% in size; as to growth rescue (activation): 0% is about no effect
Settings: yeast TDP-43 toxicity rescue, BacTiter-Glo growth, 24 h; series mostly up to 46.1 µM; growth rescue (activation): at the top concentration
How it was run: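 TDP-43-expressing yeast, pregrown in raffinose, seeded at OD600 0.02 in galactose medium with compound for 24 hr at 30 deg C. Growth read by BacTiter-Glo luminescence, so rescue of toxicity appears as activation.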
Potency is read from the fitted curve at half-maximal effect.

Row | Compound | growth rescue (activation) | Potency
1 | CC(C)(C)CN1CCNC(=O)C1CC(=O)NCCc1ccccc1F (centres undefined) | inactive: -1.12% | –
2 | O=C1c2ccccc2NC2(CCCC2)N1NS(=O)(=O)c1ccccc1 | inactive: -1.24% | –
3 | COc1cc(NC(=O)COC(=O)CNS(=O)(=O)c2ccc(F)c(F)c2F)cc(OC)c1 | inactive: -0.0696% | –
4 | Cc1cc(O)c(C(=O)/C=C/c2ccccc2Br)c(=O)o1 | inactive: 5.13% | –
5 | Cc1ccc(S(=O)(=O)CC(O)COc2ccccc2C#N)cc1 (centres undefined) | inactive: 0.937% | –
6 | COc1ccc(-c2cc(C(=O)Nc3cccnc3Cl)no2)cc1 | inactive: 9.52% | –
7 | COc1ccccc1N1C(=O)C2C(C(=O)c3ccccc3)=NN(c3ccc(C)cc3)C2C1=O (centres undefined) | inactive: 3.8% | –
8 | CCCCCCn1nc(C(=O)N(CCCC)c2c(N)n(CCC)c(=O)[nH]c2=O)c2ccccc2c1=O | inactive: -3.74% | –
9 | CC1=C(C#N)c2nc(N)c(C#N)c(C)c2/C1=C\c1ccc(OCC(=O)O)c(Cl)c1 | inactive: -7.18% | –
10 | O=C(NN1CCOCC1)c1ccccc1NS(=O)(=O)c1ccc(F)cc1F | inactive: 13% | –
11 | CC(C)(C)c1cc(NC(=O)CSc2nncs2)n(-c2ccccc2)n1 | inactive: 7% | –
12 | CCCCc1nc2ccccc2c(=O)n1NC(=O)c1c(O)c2cccc3c2n(c1=O)CC3 | inactive: 14.9% | –
13 | S=C(c1ccc(-c2cc(Cl)ccc2Cl)o1)N1CCCCC1 | inactive: -3.34% | –
14 | NC(=O)NC(=O)COC(=O)c1ccc(OC(F)F)cc1 | inactive: 4.34% | –
15 | NC(=O)C1CCN(C(=O)CN(c2cccc(Cl)c2)S(=O)(=O)c2ccccc2)CC1 | inactive: 7.79% | –
16 | COc1cccc2cc(-c3nnc(SCC(=O)Nc4ccc(NC(C)=O)cc4)n3C)oc12 | inactive: 12.6% | –
17 | O=C(COC(=O)c1ccc(Br)cc1)NCCc1ccccc1 | inactive: 10.2% | –
18 | CC(C)(C)OC(=O)N1CCCC1C(=O)NCCc1ccccc1 (centres undefined) | inactive: 5.49% | –
19 | COCCn1c(-c2ccc(C#N)cc2)nc2c1c(=O)[nH]c(=O)n2Cc1ccccc1 | inactive: 11.2% | –
20 | Cc1ccc(Nc2ccc(S(=O)(=O)N3CCOCC3)cc2[N+](=O)[O-])cc1C | inactive: 14.1% | –
21 | Cc1ccc(S(=O)(=O)NC(=O)Nc2cc(C)on2)cc1 | inactive: -13.3% | –
22 | Cc1cc(C)n(CC(O)COc2ccc(Cl)cc2Cl)n1 (centres undefined) | inactive: 21.9% | –
23 | COc1ccc(/C=C(/C#N)C(=O)Nc2ccccc2C)cc1C(=O)O | inactive: 7.84% | –

Row | Compound | growth rescue (activation) | Potency
24 | CNC(=S)NNC(=O)c1sccc1C | inactive: 12.7% | –
25 | CC(NC(=O)c1ccc(Br)o1)c1ccc(-n2ccnc2)cc1 (centres undefined) | inactive: 10.7% | –
26 | O=C(Nc1ccccc1Cl)c1cc[n+](Cc2ccc([N+](=O)[O-])cc2)cc1 | inactive: -1.58% | –
27 | COc1ccccc1N(CC(=O)NC(C)C)S(=O)(=O)c1cccs1 | inactive: -10.6% | –
28 | COc1cccc(CNC(=O)C2CCN(C(=O)c3sccc3-n3cccc3)CC2)c1 | inactive: -2.84% | –
29 | Cc1ccc(NC(=O)COC(=O)c2ccc(Cl)cc2)cc1S(=O)(=O)N(C)C | inactive: 2.61% | –
30 | COc1cc(C)ccc1OCCCOc1c(Cl)cccc1Cl | inactive: 13.8% | –
31 | CN(C)c1ccc(-c2ccnc3c2CC(C)(C(=O)Nc2cccc(N(C)C)c2)O3)cc1 (centres undefined) | inactive: -3.92% | –
32 | COc1ccc(CN(C(=O)c2ccco2)c2ccc(C)c(C)c2)cc1 | inactive: 25.6% | –
33 | CCCCOC(=O)C1[C@H]2C(=O)N(c3ccccc3CC)C[C@]23C=C[C@H]1O3 (some centres undefined) | inactive: 3.29% | –
34 | O=C(C[n+]1ccc2ccccc2c1)c1ccccc1 | inactive: 27.1% | –
35 | CCC(Oc1ccccc1)C(=O)Nc1ccccn1 (centres undefined) | inactive: 15.2% | –
36 | N#C/C(=C(/O)COc1ccc(Br)cc1)c1nnc2n1CCCCC2 | inactive: 6.94% | –
37 | Nc1ccccc1C(=O)N=Nc1[nH]c(N)c2ccccc12 | inactive: -0.221% | –
38 | CC(Oc1ccc(Br)cc1)C(=O)NCc1ccccn1 (centres undefined) | inactive: -6.45% | –
39 | N#Cc1ccccc1NC(=O)c1cccc(COc2ccc(Cl)cc2Cl)c1 | inactive: 1.85% | –
40 | Cc1csc(NC(=O)c2ccc(COc3ccccc3)o2)n1 | – | active: 17.8 µM
41 | N#Cc1ccc(CSc2nc(N)cc(N)n2)cc1 | inactive: 3.44% | –
42 | Cc1ccccc1Nc1nnc(SCC(=O)NCc2cccs2)s1 | inactive: 24.8% | –
43 | CC(C)C(=O)N1CCN(c2ccccc2NC(=S)NC(=O)/C=C/c2ccco2)CC1 | inactive: 12.5% | –
44 | Cc1c(N)cc(N)cc1C(=O)O | inactive: -4.13% | –
45 | CCOC(=O)c1sc(Nc2ccc(F)cc2)nc1C | inactive: 18.9% | –
46 | O=C(O)C(Cc1ccccc1)N=Cc1c(O)c2ccccc2oc1=O (centres undefined) | inactive: -9.56% | –

Row | Compound | growth rescue (activation) | Potency
47 | Cc1cccc(Nc2nc(NCc3ccco3)c3ccccc3n2)c1 | inactive: 2.5% | –
48 | Oc1ccc2ccccc2c1C=NC1CCCCC1 | inactive: -38.8% | –
49 | CCc1nc2ccc(C(=O)N(C)Cc3ccco3)cn2c1N(C)C(=O)Cc1ccccc1 | inactive: 4.21% | –
50 | CCOP(=O)(NC12CC3CC(CC(C3)C1)C2)NC12CC3CC(CC(C3)C1)C2 | inactive: 8.03% | –
51 | COc1cccc(N=C2SC(C(=O)Nc3cccc(Cl)c3)CC(=O)N2C)c1 (centres undefined) | inactive: 11.4% | –
52 | CCC1(c2ccc(F)cc2)NC(=O)N(CC(=O)Nc2ccc(C(N)=O)cc2)C1=O (centres undefined) | inactive: 4.7% | –
53 | CC1(C)C(=O)Nc2ccccc2N1C(=O)COc1cccnc1[N+](=O)[O-] | inactive: -5.78% | –
54 | Cc1nc(-c2ccccc2)sc1-c1nc(-c2ccncc2)ncc1S(=O)(=O)c1ccccc1 | inactive: 16.6% | –
55 | CC(=O)c1ccc(-c2cnc3c(NC=O)cc(-c4cccc(C(=O)N(C)C)c4)cn23)cc1 | inactive: 10.9% | –
56 | N#Cc1ccc(OCC(=O)OCC(=O)c2ccccc2)cc1 | inactive: 25.8% | –
57 | CC(C)[C@H](NS(=O)(=O)c1ccc2c(c1)OCCO2)C(=O)OCC(=O)Nc1cccc(Cl)c1Cl | inactive: 9.94% | –
58 | COc1cc(C(=O)NC(CCSC)C(=O)OCc2cc([N+](=O)[O-])cc3c2OCOC3)cc(OC)c1OC (centres undefined) | inactive: 10.3% | –
59 | COc1cccc(C(=O)NNC(=O)C2CCCO2)c1 (centres undefined) | inactive: -11.8% | –
60 | CC(=NNC(=O)c1ccc(NS(=O)(=O)c2ccc(Br)cc2)cc1)c1cccnc1 | inactive: 14.9% | –
61 | O=C(/C=C/c1ccc([N+](=O)[O-])cc1)OCC(=O)N1CCCC1 | inactive: -7.81% | –
62 | O=C1ON=C(c2ccc([N+](=O)[O-])cc2)/C1=C/c1ccccc1O | inactive: 20.6% | –
63 | Cc1ccnc(NS(=O)(=O)c2cnc(Cl)c(Br)c2)c1 | inactive: -27.1% | –
64 | CC(=O)Nc1ccc(NC(=O)c2nc(-c3ccccc3)oc2C)cc1 | inactive: 0.657% | –
65 | CCCc1nn2c(=O)cc(O)nc2s1 | inactive: -0.896% | –
66 | COc1cccc(Oc2coc3cc(OC(=O)N4CCOCC4)ccc3c2=O)c1 | inactive: 13.3% | –
67 | Cc1cccc(N2CCN(C(=O)/C=C/c3cccs3)CC2C)c1 (centres undefined) | inactive: 25.4% | –
68 | Cc1cccc(NC(=O)CSc2nc(C)c(Cc3ccccc3)c(=O)[nH]2)c1C | inactive: 9.98% | –
69 | COCc1ccc(CN2CCC(n3nccc3NC(=O)CCOc3ccccc3)CC2)o1 | inactive: -7.49% | –
